Assay results: PMC6451091
Some of the results follow. For part of these data: At the low end of the ranking the order means little. For part of these data: The protein was read in a cell extract, so binding may be indirect.

What was measured:
Conditions in all cases: 20 mM HEPES pH 7.9, 100 mM NaCl, 1 mM DTT, 0.2 mg/mL BSA, 0.02% Triton X-100, 2% milk, 0.4 mg/mL salmon testes DNA; 1 h; temperature not stated; high values mean tight binding; double strand, one strand shown; sequences stand for … in GCCTAGCAC…GTGCTAGGTCTTGATTCGCTTGACGCTGCTG
PU.1 (IVT) = PU.1 (IVT) (UniProt P17947); experiment: protein-binding microarray (PBM)
[1] = biological target: PU.1 (endogenous, THP-1 nuclear extract) (UniProt P17947); experiment: nuclear extract protein-binding microarray (nextPBM)
[2] = biological target: T1, FLI1 (endogenous, THP-1 nuclear extract) (UniProt Q01543); experiment: as above
T1 sequence: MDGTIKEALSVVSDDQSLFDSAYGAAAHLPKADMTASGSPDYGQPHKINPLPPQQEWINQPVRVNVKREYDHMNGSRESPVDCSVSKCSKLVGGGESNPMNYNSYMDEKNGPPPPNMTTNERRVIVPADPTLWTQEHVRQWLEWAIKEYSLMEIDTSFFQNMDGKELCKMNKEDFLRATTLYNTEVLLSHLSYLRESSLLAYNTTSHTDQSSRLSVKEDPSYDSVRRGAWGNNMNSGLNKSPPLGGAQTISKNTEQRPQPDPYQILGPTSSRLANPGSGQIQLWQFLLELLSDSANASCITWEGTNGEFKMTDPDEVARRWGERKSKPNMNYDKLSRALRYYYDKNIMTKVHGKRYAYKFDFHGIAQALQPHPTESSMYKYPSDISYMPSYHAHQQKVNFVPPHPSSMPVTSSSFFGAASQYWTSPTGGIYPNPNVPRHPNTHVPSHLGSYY

| Sequence | binding signal (PU.1 (IVT)) [z-score] | binding signal [1] [z-score] | binding signal [2] [z-score] |
| --- | --- | --- | --- |
| GAAAACAGGAAGTCCCATTG | 7.34 | 7.27 | 4.69 |
| CGAAAGGGGAAGTGCCAAAC | 6.72 | 7.08 | 3.34 |
| TGTATAAGGAAGTGGGAGCC | 3.93 | 3.99 | 2.12 |
| CAAAAGGGGAAGTGCTTCAC | 7.35 | 7.13 | 3.92 |
| GAGGGGAGGAAGTGCCATGG | 3.53 | 3.11 | 2.61 |
| TGAAAGAGGAAGTGCACCCA | 7.26 | 7.33 | 3.53 |
| AAGCAGAGGAAGTGCAAATA | 3.04 | 2.75 | 2.34 |
| GAAAACAGGAAGTCCCATAT | 7.09 | 7.16 | 4.66 |
| ACGATGAGGAACTGGCAGTA | 2.98 | 2.86 | 0.776 |
| AAAAAGAGGAAGAGGGGACA | 5.23 | 5.94 | 1.82 |
| AATTTGAGGAAGTGAATCTG | 7.68 | 7.4 | 3.81 |
| AAAAAGAGGAAGGGTGGCTG | 4.91 | 5.24 | 1.87 |
| ATTTTGAAGAACTACTGTGG | 1.17 | 1.2 | -0.409 |
| AAAAAAAGGAAGTGCTCAAG | 6.42 | 6.56 | 2.75 |
| TGAAAGGGGAAGTGCCACTT | 7.18 | 7.17 | 3.29 |
| AGGAAGAGGAAGTGGCAGGG | 6.45 | 6.33 | 3.69 |
| CCTTGGAGGAAGTGATACCC | 3.14 | 3.63 | 2.39 |
| GAAAACAGGAAGTCCCATAA | 7.36 | 7.26 | 4.7 |
| CGAGAGGGGAAGTGCTAAAC | 4.37 | 4.15 | 2.28 |
| CAAATAGGGAAGTGATAGAG | 6.72 | 6.73 | 2.64 |
| TGGGAAAGGAAGTGGGTGTG | 1.92 | 1.9 | 2.66 |
